Measured values as given in PubChem BioAssay AID662 (National Center for Advancing Translational Sciences (NCATS), 2007).
About 1,800 (2.5%) of roughly 71,000 compounds were called active. Inconclusive means that the source gave no clear call. Such entries were picked first, then a sample of the others. Calls come from the whole dose curve; as a rule, active = well fitted activation curve with a large enough effect in the signal ratio, with a control signal flat (not every such curve was filed as active); inconclusive = small, poorly fitted or top-dose-only effect, or effect the other way, or a change in a side signal; inactive = flat fitted curve, though single readings scatter; the % refers to the signal ratio. Potencies of inconclusive entries are doubtful fits and often do not repeat.

Experiment: Cell signaling CRE-BLA (Fsk stim); for activity change, negative = inhibition: % of control where 0% means no effect
Settings: CHO CRE-bla reporter (cAMP response element driving beta-lactamase), forskolin EC10, beta-lactamase ratio; activity change, negative = inhibition: at 38.2 µM (top of the series) unless noted
In short: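 The 460nm/530nm emission ratio after CCF4 loading defined %Activity, from which AC50 values were obtained. CRE-bla CHO cells received compound dilution series together with an EC10 level of NKH 477 for 3 hours at 37 degrees Celsius.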
Potency is the fitted concentration of half-maximal effect; tags give direction and shape of the fitted curve.

Row | Structure (SMILES) | activity change, negative = inhibition | Potency
1 | CC[C@@H]1[C@H]2CCCCN3[C@@H]2[C@@H](C[C@H]3[C@@H]2C[C@H](C)C(=O)O2)[C@@H]2[C@H]1OC(=O)[C@H]2C | inconclusive: -18.5% | –
2 | CC(C)c1nc2oc3c(=O)[nH]cnc3c2c2c1CCC2 | inconclusive: 18.9% | –
3 | N#Cc1cc2c(=O)n3ccccc3nc2n(CCN2CCOCC2)c1=O | – | inconclusive: 12.6 µM [rising, single point]
4 | Cc1cc(C)c2c(n1)nn1c(N3CCN(c4ccccc4C)CC3)cc(C)nc21 | inactive | –
5 | COc1cccc(CC(=O)Nn2c(C)nc3ccccc3c2=O)c1 | inactive | –
6 | CCCCC(=O)NCCNc1nc2c(c(=O)n(C)c(=O)n2C)n1Cc1ccc(F)cc1 | inconclusive: 23.1% | –
7 | COc1ccc(-c2nc(-c3ccc(NC(=O)c4ccncc4)cc3)no2)cc1OC | inconclusive: -21.8% | –
8 | O=C(Cn1cnc2c(cnn2-c2ccc(Cl)cc2)c1=O)NCC1CCCO1 (centres undefined) | inconclusive: 1.28% | –
9 | CCOC(=O)N1CCC(NC(=O)C2CCCN(c3nc4ccccc4o3)C2)CC1 (centres undefined) | inconclusive: -7.4% | –
10 | Clc1ccc(-n2ncc3c(NCC4CCCO4)ncnc32)cc1 (centres undefined) | inconclusive: 4.45% | –
11 | CC1=C(C(=O)OC2CCCCC2)C(c2ccc(C)o2)C2=C(CCCC2=O)N1 (centres undefined) | inconclusive: 14.2% | –
12 | COc1cc2nc(=S)n3[nH]c(CCn4nc(C)cc4C)nc3c2cc1OC | – | inconclusive: 10 µM [rising, single point]
13 | COc1ccc(C2c3sc(=O)[nH]c3SC3C(=O)N(c4ccccc4)C(=O)C32)cc1 (centres undefined) | inconclusive: -17.6% | –
14 | c1ccc2c(NCCN3CCOCC3)nc(-c3ccoc3)nc2c1 | – | inconclusive: 10 µM [rising, single point]
15 | CC(C)Cn1c(N)c(C(=O)COC(=O)C2=COCCO2)c(=O)n(C)c1=O | inactive | –
16 | CC(C)(C)n1ncc2c(=O)n(CC(=O)NCCc3ccccc3)cnc21 | inconclusive: 7.57% | –
17 | CCOC(=O)c1cc2cc(F)ccc2nc1C | – | inconclusive: 12.6 µM [rising, single point]
18 | O=C(Cn1cccc1C(=O)c1ccccc1)NCc1cccnc1 | inconclusive: 19.6% | –
19 | Cc1ccccc1-n1nnc2c(=O)oc3ccccc3c21 | – | inconclusive: 25.1 µM [falling, single point]
20 | Cc1ccc(-c2cc(C(=O)Nc3c(C#N)cnn3C)no2)cc1 | inactive | –
21 | CN1CC[C@@]2(CCCN(S(=O)(=O)c3ccccc3)C2)C1 | inactive | –
22 | Cc1cccc(-n2c(N)c(C(=O)NCCN3CCOCC3)c3nc4ccccc4nc32)c1 | – | active: 10 µM
23 | Cc1c2c(nc3ccccc13)OCC2 | inactive | –
24 | O=C(NCC1CCCO1)C1CC(=O)N(c2ccc(F)c(Cl)c2)C1 (centres undefined) | inactive | –
25 | Cc1nnc(SCC(=O)Nc2ccc(N3CCOCC3)cc2)o1 | inconclusive: 5.39% | –
26 | CCOc1ccc(S(=O)(=O)N2CCc3ccccc3C2)cc1 | inconclusive: -4.15% | –
27 | Cc1c(Cl)c(S(N)(=O)=O)cc(S(N)(=O)=O)c1NC(=O)c1ccc(Cl)cc1 | inactive: -12.6% [at 7.6 µM] | –

Row | Structure (SMILES) | activity change, negative = inhibition | Potency
28 | OCCOCCn1c2ccccc2c2ccccc21 | inactive | –
29 | CCCOc1ccc(C2C(=O)N(C3CCCCC3)CC(=O)N2CCC)cc1OC (centres undefined) | inconclusive: 29.1% | –
30 | O=C(O)c1cc(O)c2c(c1)C(=O)c1cccc(O)c1C2=O | – | inconclusive: 5.01 µM [rising, full curve, poor fit]
31 | CCOC(=O)c1c(C2COc3ccccc3O2)csc1N (centres undefined) | inactive | –
32 | O=C(CN1C(=O)COCC1=O)N1CCOCC1 | inactive | –
33 | O=C(Nc1nc2c(ccc3ccccc32)s1)c1ccco1 | – | inconclusive: 20 µM [falling, single point]
34 | O=C(NC1CCCCC1)N(CCN1CCOCC1)Cc1cc2cc3c(cc2[nH]c1=O)OCCO3 | – | inconclusive: 12.6 µM [rising, partial curve]
35 | C[C@H](O)Cn1cnc2c1c(=O)n(C)c(=O)n2C | inactive | –
36 | Cn1c(=O)[nH]c(=O)c2c1nc(N1CCCCCC1)n2CCCSc1nc2ccccc2o1 | inconclusive: 33.8% | –
37 | Cc1ccc(N2C(=O)C3C(C2=O)C(C(=O)c2ccc(Cl)cc2)N2CCCC32)cc1 (centres undefined) | inconclusive: -20.1% | –
38 | NC(=NCc1ccccc1)NC(=O)c1nc(Cl)c(N)nc1N | inconclusive: 2.61% | –
39 | O=C1CC(c2cccc(Cl)c2)Cc2nc(N3CCN(c4ccccc4)CC3)ncc21 (centres undefined) | inactive | –
40 | O=C(c1cnccn1)N1CCC2(CC1)CCN(c1ncccn1)CC2 | inconclusive: 1.61% | –
41 | CCN(CC)S(=O)(=O)c1ccc(C(=O)Nc2ncn(Cc3ccccc3)n2)cc1 | – | inconclusive: 10 µM [falling, partial curve, poor fit]
42 | Cc1cc(=O)[nH]c(SCC(=O)Nc2ccc(Br)cn2)n1 | inconclusive: -20.5% | –
43 | CCc1nnc(NC(=O)c2cccc(C(=O)Nc3nnc(CC)s3)n2)s1 | inconclusive: 3.44% | –
44 | COC(=O)c1ccc(C(NC(=O)OCc2ccccc2)/C(=C/[C@@H](C)C(=O)NCc2cc(F)cc(F)c2)c2cccnc2)cc1 (some centres undefined) | inactive | –
45 | CCOC(=O)c1[nH]c2ccccc2c1NC(=O)c1cc(OC)c(OC)c(OC)c1 | – | active: 3.16 µM
46 | COc1ccc(N/C=C2\CCOC2=O)cc1 | inconclusive: 0.49% [at 7.6 µM] | –
47 | COCCOc1ccc(C(F)(F)F)cc1Nc1nc2ccccc2o1 | inconclusive: 22.1% | –
48 | c1cncc(-c2cc(-c3cc(-c4cccnc4)n[nH]3)[nH]n2)c1 | inactive: 7.51% [at 7.6 µM] | –
49 | COc1ccccc1CNC(=O)C1CCN(S(C)(=O)=O)CC1 | inconclusive: 3.63% | –
50 | CCc1c2c(nc3c(C(C)C)cccc13)-c1cccc(=O)n1C2 | – | inconclusive: 12.6 µM [rising, partial curve]
51 | O=C(Nc1ccc(-c2nc3ccccc3[nH]2)cc1)C1CCCO1 (centres undefined) | inactive | –
52 | CC(C)CCn1c(CN(C)Cc2ccccc2)nc2c1c(=O)n(C)c(=O)n2C | inconclusive: 7.89% | –
53 | c1ccc2[nH]c(SCc3ccc(-c4nnco4)cc3)nc2c1 | – | inconclusive: 6.31 µM [rising, partial curve]
54 | COc1ccc2c(-c3ccccc3)cc3nnnn3c2c1 | – | inconclusive: 2.51 µM [rising, single point]
